# Some of the results follow.
# Target: T1, OsWOX13 (Oryza sativa, UniProt Q5QMM3 1-267)
# T1 sequence: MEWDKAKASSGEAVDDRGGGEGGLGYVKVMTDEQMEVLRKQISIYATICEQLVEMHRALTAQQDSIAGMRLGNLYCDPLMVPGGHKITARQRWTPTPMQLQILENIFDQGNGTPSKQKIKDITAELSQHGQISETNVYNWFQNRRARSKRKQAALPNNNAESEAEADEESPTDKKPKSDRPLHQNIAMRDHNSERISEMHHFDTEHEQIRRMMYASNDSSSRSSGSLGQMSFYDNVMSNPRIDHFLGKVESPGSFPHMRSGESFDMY
# Experiment: protein-binding microarray (RPBM); PBS, 2% BSA, 51.3 ng/ul salmon testes DNA, 50 uM zinc acetate, 200 nM TF, 25 C, 1 h; high values mean tight binding
# Details: protein: recombinant; tags: N-terminal polyhistidine and DsRed monomer fusion (pET32a); label: CyDye5-dUTP incorporated in the synthesized complementary strand; 3' TTTTT single-stranded linker to array surface; dsDNA, one strand shown
# Outline: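 The binding signal is fluorescence intensity per array feature (arbitrary units). Readings came from an Axon 4000B scanner after a washed, 2% BSA-blocked, double-stranded custom Agilent array had been incubated for 1 h at 25 °C with 200 nM protein and 50 µM zinc acetate. The protein was a Ni–NTA-purified transcription factor fused N-terminally to polyhistidine and DsRed, expressed in E. coli BL21-CodonPlus.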
row,Sequence,binding signal
1,AAGAAAATTTAAAACAATTGATTACATACTAAATTAATATCGGAGTCACCTAGTGCAG,9840 fluorescence intensity (a.u.)
2,CGCTGTCACATCAAATATTTAAACATATGCATATAGTATTCGGAGTCACCTAGTGCAG,3550 fluorescence intensity (a.u.)
3,GGGATTGGTATTAGCATATTAGAAAGCTATTGGAGATGCTCGGAGTCACCTAGTGCAG,8390 fluorescence intensity (a.u.)
4,TAAATGATTTGGAGTTAGTATTGGGCTATATTATTAAACTCGGAGTCACCTAGTGCAG,23000 fluorescence intensity (a.u.)
5,CCAGATTGACCAACCGCTCTAGCATTGTTCTGCACATGAGCGGAGTCACCTAGTGCAG,35200 fluorescence intensity (a.u.)
6,GCGGGTGAATTAACTGAAAATCAATCCTGAGTATGTACGTCGGAGTCACCTAGTGCAG,9100 fluorescence intensity (a.u.)
7,CATGATTGGACCAAAGAAATGCAGATTCAAACACTCAACACGGAGTCACCTAGTGCAG,35300 fluorescence intensity (a.u.)
8,TTATTGTAAAAGAGATTGATGAAGTTATGTGTCCTTCCATCGGAGTCACCTAGTGCAG,8620 fluorescence intensity (a.u.)
9,GGATCTTGTTCTAATTATCATCTTATTAGAATCCATCCATCGGAGTCACCTAGTGCAG,4800 fluorescence intensity (a.u.)
10,ATTAAGTGAATCAAAATTTATAACAGTTATAACTGATACACGGAGTCACCTAGTGCAG,5930 fluorescence intensity (a.u.)
11,GGTCTCCGTCCAAGTCAATTAGTCAAAATTATGCATCTAGCGGAGTCACCTAGTGCAG,10100 fluorescence intensity (a.u.)
12,AGAACAATTAACAGTTAACAGAAGCCAAGAAATGAAATGGCGGAGTCACCTAGTGCAG,17700 fluorescence intensity (a.u.)
13,CCAATTCAGTCATCCGTTTCCGATTTTGTTTCATGCAAATCGGAGTCACCTAGTGCAG,3280 fluorescence intensity (a.u.)
14,ATAAATACTTAATTAATCATATAATAAGAGAGACTTTATTCGGAGTCACCTAGTGCAG,12000 fluorescence intensity (a.u.)
15,TTCTGCGCTGTGATTGGTTGGAGCAGCTGCGCGCGGATCGCGGAGTCACCTAGTGCAG,24600 fluorescence intensity (a.u.)
16,CTTTGATTCGGCCTGTCAGCTGATGTTTGGTTCTTCCAAACGGAGTCACCTAGTGCAG,3210 fluorescence intensity (a.u.)
17,GGCTGCTTTGATTAACTCGATCATGAGTCAATGGACCATGCGGAGTCACCTAGTGCAG,6530 fluorescence intensity (a.u.)
18,GGGGATGAATTGATCACGCGGTGTGCGCTTTCTGATTCTGCGGAGTCACCTAGTGCAG,5930 fluorescence intensity (a.u.)
19,CTCTTAAATTGTGATTTCTGATGCTTCTCAAGCCAGACCACGGAGTCACCTAGTGCAG,21000 fluorescence intensity (a.u.)
20,GCTGGTGCATGATTGGTATTAGTATAGATATACAGTTCTGCGGAGTCACCTAGTGCAG,26100 fluorescence intensity (a.u.)
21,GCCTGCATTCATTTCCCTAATCAATCGGCTCGGATAATGTCGGAGTCACCTAGTGCAG,4450 fluorescence intensity (a.u.)

row,Sequence,binding signal
1,AGTAAATTGATTTAGGCATTTTAGTTCACCTATATTAGTGCGGAGTCACCTAGTGCAG,40900 fluorescence intensity (a.u.)
2,TGCTAATTTGATTGTTCATGGTGACAGCTGGAGCACTGGGCGGAGTCACCTAGTGCAG,37900 fluorescence intensity (a.u.)
3,GTGGTTACTTATTAACATATGGTTAATTAAGTATTATATTCGGAGTCACCTAGTGCAG,3640 fluorescence intensity (a.u.)
4,ATAACCACATCTTAATTAACTAAAATACTCACATTTTAGTCGGAGTCACCTAGTGCAG,5750 fluorescence intensity (a.u.)
5,TAGAGAGATTGATATTTCATGTGCTCTAGAGATGGTTGAGCGGAGTCACCTAGTGCAG,28900 fluorescence intensity (a.u.)
6,CATACTTCAGTGATTGAACCTAGGATTATAAACTCTAACTCGGAGTCACCTAGTGCAG,31500 fluorescence intensity (a.u.)
7,ATATCGTGATTATTACTCACCACACGTTGTACACAATGATCGGAGTCACCTAGTGCAG,14000 fluorescence intensity (a.u.)
8,AATTAATAGAATATCATTTTGTTGAATCCAGTAGCATACACGGAGTCACCTAGTGCAG,8540 fluorescence intensity (a.u.)
9,TTCCCCACCAATCTAATAGGTAAGATTTCTTAGAACAAGCCGGAGTCACCTAGTGCAG,3650 fluorescence intensity (a.u.)
10,ACCAAATTAGTGGCTGTACCGAACGTTATTAGCGCTTTAACGGAGTCACCTAGTGCAG,10500 fluorescence intensity (a.u.)
11,CTTTCTCCTGCTAATTTCTATCAACGGAAATTTCGCAAATCGGAGTCACCTAGTGCAG,4600 fluorescence intensity (a.u.)
12,TACTAGCTAAGTTTAATTAATTTCAAAATGCAAGCTGATCCGGAGTCACCTAGTGCAG,4170 fluorescence intensity (a.u.)
13,GAACGGAGGATGCTGAGCTCTCTTATGAGGTCTATTTTCCCGGAGTCACCTAGTGCAG,65100 fluorescence intensity (a.u.)
14,GTAAATTAACTGATGGTAGTACAAACAACACAAATCTGAACGGAGTCACCTAGTGCAG,43800 fluorescence intensity (a.u.)
15,TGAAATTATCATTTATTTATTTGTGACTTGATTTATCATCCGGAGTCACCTAGTGCAG,31400 fluorescence intensity (a.u.)
16,GGGCTGTTTAGTTTTGGATTGATTGAGCAATGTAATATAACGGAGTCACCTAGTGCAG,22200 fluorescence intensity (a.u.)
17,AGTTCAATTGCTTTGATGAGTGAGCAGAGAGATGATGCAGCGGAGTCACCTAGTGCAG,3420 fluorescence intensity (a.u.)
18,TTCCCAAATTATCTAACTTGGTCTAGACTAGAGGCAACCACGGAGTCACCTAGTGCAG,5560 fluorescence intensity (a.u.)
19,GTTAGATAGAATGGTAACACAGACTGACATATACACAAGACGGAGTCACCTAGTGCAG,20900 fluorescence intensity (a.u.)
20,TCGACTAATTTATGAGACAAATATTTTAAGACTAATTGCTCGGAGTCACCTAGTGCAG,31700 fluorescence intensity (a.u.)
21,GAAATAGATCGTCCCAATTAACTAACTAAACCACTGTAAACGGAGTCACCTAGTGCAG,9720 fluorescence intensity (a.u.)

# From PMC7819943, “Rice protein-binding microarrays: a tool to detect cis-acting elements near promoter regions in rice”
